{"source": "PubChem BioAssay AID1347165", "about": "(National Center for Advancing Translational Sciences (NCATS), 2019)", "note": "The whole screen tested about 220,000 compounds, of which about 5,700 (2.6%) were called active. The inconclusive results got no clear call from the source; some entries with a clear call stand among them for comparison. The call rests on the fitted dose curve; in most records, active means well fitted inhibition curve with a large enough effect; inconclusive means small, poorly fitted or top-dose-only effect; inactive means no such curve, though single readings can be large or run the other way. Where the call is inconclusive, the potency comes from a doubtful curve fit. Potency means the concentration at half of the fitted maximal effect; tags describe the fitted curve by direction and shape.", "data": [{"biological_target": "Lysine-specific demethylase 5B (Homo sapiens) (UniProt Q9UGL1)", "sequence (Q9UGL1 whole entry, looked up)": "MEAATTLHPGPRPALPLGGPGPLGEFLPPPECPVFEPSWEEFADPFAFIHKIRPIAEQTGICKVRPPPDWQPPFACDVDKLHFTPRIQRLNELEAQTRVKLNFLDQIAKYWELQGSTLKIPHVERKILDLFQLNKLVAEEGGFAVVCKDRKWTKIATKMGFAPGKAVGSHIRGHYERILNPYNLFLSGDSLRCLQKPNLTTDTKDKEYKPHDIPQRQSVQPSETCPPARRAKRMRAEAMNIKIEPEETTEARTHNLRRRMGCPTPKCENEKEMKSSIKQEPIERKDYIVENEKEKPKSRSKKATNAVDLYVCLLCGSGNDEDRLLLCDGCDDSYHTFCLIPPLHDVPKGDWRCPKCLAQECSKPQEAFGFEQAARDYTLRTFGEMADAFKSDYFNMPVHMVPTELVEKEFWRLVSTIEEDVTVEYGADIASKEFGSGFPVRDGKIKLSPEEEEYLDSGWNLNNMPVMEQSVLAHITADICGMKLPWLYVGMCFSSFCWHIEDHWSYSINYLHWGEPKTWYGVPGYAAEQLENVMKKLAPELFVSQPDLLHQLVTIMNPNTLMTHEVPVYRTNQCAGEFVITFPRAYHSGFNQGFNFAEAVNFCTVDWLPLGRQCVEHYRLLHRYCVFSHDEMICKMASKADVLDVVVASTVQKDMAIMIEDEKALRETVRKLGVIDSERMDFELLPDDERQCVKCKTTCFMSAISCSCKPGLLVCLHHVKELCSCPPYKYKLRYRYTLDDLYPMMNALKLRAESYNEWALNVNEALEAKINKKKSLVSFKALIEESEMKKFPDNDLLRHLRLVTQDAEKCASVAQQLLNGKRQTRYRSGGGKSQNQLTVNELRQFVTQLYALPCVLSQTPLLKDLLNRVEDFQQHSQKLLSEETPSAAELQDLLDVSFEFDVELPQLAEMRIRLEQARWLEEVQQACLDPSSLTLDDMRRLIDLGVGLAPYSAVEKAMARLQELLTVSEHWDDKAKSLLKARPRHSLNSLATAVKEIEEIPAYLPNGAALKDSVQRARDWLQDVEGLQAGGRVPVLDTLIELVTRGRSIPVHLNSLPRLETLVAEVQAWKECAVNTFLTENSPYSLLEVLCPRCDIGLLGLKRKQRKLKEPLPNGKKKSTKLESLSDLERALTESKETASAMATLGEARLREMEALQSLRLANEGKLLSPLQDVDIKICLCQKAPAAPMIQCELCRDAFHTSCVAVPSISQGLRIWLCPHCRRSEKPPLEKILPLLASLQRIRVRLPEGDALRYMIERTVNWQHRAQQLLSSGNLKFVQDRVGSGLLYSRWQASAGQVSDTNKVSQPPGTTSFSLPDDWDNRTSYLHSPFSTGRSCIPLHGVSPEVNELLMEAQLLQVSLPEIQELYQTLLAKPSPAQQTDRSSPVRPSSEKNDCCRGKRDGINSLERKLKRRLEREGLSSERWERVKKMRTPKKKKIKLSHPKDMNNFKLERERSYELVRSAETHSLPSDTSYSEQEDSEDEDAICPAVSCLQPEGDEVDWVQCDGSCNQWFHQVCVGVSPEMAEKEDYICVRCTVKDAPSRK", "experiment": "Primary screen for KDM5B Histone Demethylases FDH-coupled qHTS; further: nearly all actives have a fitted effect of over 70% in size; on activity change, negative = inhibition: 0% is about no effect", "conditions": "FDH-coupled NADH fluorescence (FDH is formaldehyde dehydrogenase); activity change, negative = inhibition: at 57.7 µM (top of the series) unless noted", "method_in_brief": "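Coupled FDH/NAD⁺ fluorescence readout. KDM5BΔAP 200 nM final; compound titration, 10 min RT preincubation; substrate mix 12.5 µM H3K4me3, 25 µM 2-OG, 50 µM Fe(II), 100 µM ascorbate, 0.25 mM NAD⁺, 0.25 U/mL FDH; ΔRFU over 30 min.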", "values": [{"smiles": "CC(C)(C)C1CCC2(CC1)NC(=O)N(CC(=O)NCc1ccco1)C2=O", "note": "(stereo unspecified)", "Potency": "inconclusive: 28.2 µM [inhibitor, single point]"}, {"smiles": "Cc1ccc(CNC(=O)c2cc(-c3ccc(Cl)cc3)on2)cc1", "activity change, negative = inhibition": "inactive: 0.239%"}, {"smiles": "CCn1nc(C)c(-c2cc(C(=O)NCC3Cn4cccc4CN3C)no2)c1C", "note": "(stereo unspecified)", "Potency": "inconclusive: 8.91 µM [inhibitor, full curve, poor fit]"}, {"smiles": "O=C(Nc1cccc(Br)c1)c1cc2ccc(O)cc2oc1=O", "Potency": "inconclusive: 39.8 µM [inhibitor, partial curve, poor fit]"}, {"smiles": "Cc1ccc(C)c(CN2C(=O)c3ccccc3S(=O)(=O)c3ccc(C(=O)NCCC4=CCCCC4)cc32)c1", "Potency": "inconclusive: 17.8 µM [inhibitor, partial curve, poor fit]"}, {"smiles": "COc1ccc(Nc2oc(-c3ccc(COc4ccccc4C)o3)nc2C#N)cc1", "Potency": "inconclusive: 28.2 µM [inhibitor, partial curve, poor fit]"}, {"smiles": "COc1cccc(CN2CCc3c(cc(C(=O)Nc4cc(C)ccc4C)n3C)C2)c1", "Potency": "inconclusive: 20 µM [inhibitor, single point]"}, {"smiles": "CC1CCN(CCNC(=O)c2cc3cn(C(C)C)cc3s2)CC1", "Potency": "active: 14.1 µM"}, {"smiles": "Cc1ccc(-c2cc(C(=O)N3CCC(c4nc(C5CCOCC5)no4)C3)c3ccccc3n2)cc1C", "note": "(stereo unspecified)", "Potency": "active: 25.1 µM"}, {"smiles": "Cc1cccn2c(=O)c(C(=O)NC(C)c3ccccc3)cnc12", "note": "(stereo unspecified)", "Potency": "inconclusive: 5.01 µM [inhibitor, partial curve, poor fit]"}, {"smiles": "O=C1CC(c2ccccc2)N(C(=O)CNC(=O)c2ccc3cc[nH]c3c2)CCCCCN1", "note": "(stereo unspecified)", "Potency": "active: 25.1 µM"}, {"smiles": "Cc1ccc(OCc2nc(-c3ccc(C(=O)NCc4ccc(OC(C)C)cc4)cc3)oc2C)cc1", "Potency": "inconclusive: 39.8 µM [inhibitor, single point]"}, {"smiles": "COc1ccc(CN2CCN(c3nc4ccccc4o3)CC2CCO)c(F)c1", "note": "(stereo unspecified)", "Potency": "inconclusive: 20 µM [inhibitor, single point]"}, {"smiles": "CC1(CNCc2ccccc2)COc2ccc(C(=O)Nc3cccnc3)cc2N1", "note": "(stereo unspecified)", "activity change, negative = inhibition": "inactive: -31.1% [at 86.2 µM]"}, {"smiles": "COc1ccc2c(C)c(CC(=O)Nc3ccc(Cn4cncn4)cc3)c(=O)oc2c1OC", "Potency": "inconclusive: 22.4 µM [inhibitor, partial curve, poor fit]"}, {"smiles": "CCOC(=O)C1CCN(c2nc3c(S(=O)(=O)c4ccc(C)c(C)c4)nnn3c3ccc(Cl)cc23)CC1", "Potency": "inconclusive: 25.1 µM [inhibitor, partial curve, poor fit]"}, {"smiles": "CCOc1cccc(-c2noc(-c3nnn4c3COC(c3ccc(Cl)cc3)C4)n2)c1", "note": "(stereo unspecified)", "Potency": "active: 22.4 µM"}, {"smiles": "CC1(c2ccc3c(c2)OCCO3)NC(=O)N(CC(=O)c2cn(CCC#N)c3ccccc23)C1=O", "note": "(stereo unspecified)", "activity change, negative = inhibition": "inactive: 12%"}, {"smiles": "COc1ccccc1OCC(=O)NNc1c2ccccc2nc2ccccc12", "Potency": "inconclusive: 39.8 µM [inhibitor, partial curve, poor fit]"}, {"smiles": "Cc1ccccc1C(=O)Nc1c(C(=O)N2CCN(Cc3ccccc3)CC2)oc2ccccc12", "Potency": "inconclusive: 28.2 µM [inhibitor, single point]"}, {"smiles": "O=C(O)c1ccc2c(=O)n3c(nc2c1)/C(=C/c1ccccc1Br)CC3", "Potency": "inconclusive: 35.5 µM [inhibitor, partial curve, poor fit]"}, {"smiles": "Cc1nc(N2CCN(C(=O)Cc3ccc(Cl)cc3)CC2)cc(C(F)(F)F)n1", "activity change, negative = inhibition": "inactive: 2.95%"}, {"smiles": "CN1CCc2c(sc3c2C(=O)NC(c2ccc(C(C)(C)C)cc2)N3)C1", "note": "(stereo unspecified)", "Potency": "inconclusive: 28.2 µM [inhibitor, partial curve, poor fit]"}, {"smiles": "O=C(Nc1cnc(N2CCN(c3ccccc3)CC2)c(C(=O)O)c1)c1cccs1", "Potency": "inconclusive: 25.1 µM [inhibitor, single point]"}, {"smiles": "O=C(NCc1ccco1)c1cc(-c2ccccc2F)cc2c1OCCN2Cc1cccnc1", "Potency": "active: 28.2 µM"}, {"smiles": "N#CC1=C(N)n2ncnc2NC1c1ccccc1Cl", "note": "(stereo unspecified)", "Potency": "inconclusive: 22.4 µM [inhibitor, partial curve, poor fit]"}, {"smiles": "O=C(Nc1ccccc1Cl)C1Sc2nnc(-c3ccccc3)n2NC12CCCC2", "note": "(stereo unspecified)", "activity change, negative = inhibition": "inactive: -1.4%"}, {"smiles": "Cc1ccc(NC(=O)c2cc(S(=O)(=O)NCCc3ccc(Cl)cc3)ccc2F)cc1", "activity change, negative = inhibition": "inactive: -20.5%"}, {"smiles": "O=C(c1ccc(Oc2ccc(CN3CCCC3)cc2F)nc1)N1CCCCC1", "Potency": "inconclusive: 28.2 µM [inhibitor, single point]"}, {"smiles": "CC(C)(C)C1CCc2oc3ccc(NS(=O)(=O)c4ccc(C(=O)O)cc4)cc3c2C1", "note": "(stereo unspecified)", "Potency": "inconclusive: 25.1 µM [inhibitor, single point]"}, {"smiles": "CCC(=O)N/C(=N/c1nc(C)cc(C)n1)Nc1ccccc1", "Potency": "inconclusive: 31.6 µM [inhibitor, partial curve, poor fit]"}, {"smiles": "CSc1ccc(C=Nc2ccc(Br)c(Cl)c2)cc1", "Potency": "inconclusive: 25.1 µM [inhibitor, partial curve, poor fit]"}, {"smiles": "N#Cc1ccc(C(=O)NCc2nnc3ccc(-c4ccc(F)cc4)nn23)cc1", "Potency": "active: 28.2 µM"}, {"smiles": "Cc1ccc(NC(=O)CSc2cn(CC(=O)N3CCCC3)c3ccccc23)cc1Cl", "Potency": "inconclusive: 15.8 µM [inhibitor, partial curve, poor fit]"}, {"smiles": "O=C(CSc1nc2c([nH]c3ccccc32)c(=O)n1-c1ccc(Cl)cc1)c1ccccc1", "Potency": "inconclusive: 17.8 µM [inhibitor, partial curve, poor fit]"}, {"smiles": "CC1(C)CC(=O)C2=C(C1)OC(N)=C(C#N)C2c1ccc(C(F)(F)F)cc1", "note": "(stereo unspecified)", "activity change, negative = inhibition": "inactive: 19.7%"}, {"smiles": "COc1ccc(NCc2cccn2-c2nnc(N3CCCCC3)s2)cc1OC", "Potency": "inconclusive: 17.8 µM [inhibitor, partial curve, poor fit]"}, {"smiles": "CCN(C(=O)c1occc1C)C1CC1", "activity change, negative = inhibition": "inactive: -4.24%"}, {"smiles": "CCOc1ccc(NC(=O)c2c(NC(=O)Cc3ccccc3)sc3c2CCCCC3)cc1", "Potency": "inconclusive: 15.8 µM [inhibitor, partial curve, poor fit]"}, {"smiles": "O=C1NC2(CCCCC2)N(C(=O)c2ccccc2Cl)C2=C1CCCC2", "activity change, negative = inhibition": "inactive: 16.2%"}, {"smiles": "Cc1ccc(-n2c(=O)c3c(c4cc(C)ccc4n3C)n(CC(=O)N3CCCC3)c2=O)cc1", "Potency": "inconclusive: 3.16 µM [inhibitor, full curve, poor fit]"}]}]}
